# Measured values from PubChem BioAssay AID1721 (National Center for Advancing Translational Sciences (NCATS), 2009).
# The whole screen tested about 290,000 compounds, of which about 1,100 (0.38%) were called active. The inconclusive results got no clear call from the source; some entries with a clear call stand among them for comparison. The call rests on the fitted dose curve; in most records, active means well fitted inhibition curve with a large enough effect; inconclusive means small, poorly fitted or top-dose-only effect, or another doubt; inactive means no such curve, though single readings can be large or run the other way. Where the call is inconclusive, the potency comes from a doubtful curve fit.
# Biological target: Pyruvate kinase (Leishmania mexicana) (UniProt Q27686)
# Chain of UniProt Q27686 (Q27686 whole entry, looked up): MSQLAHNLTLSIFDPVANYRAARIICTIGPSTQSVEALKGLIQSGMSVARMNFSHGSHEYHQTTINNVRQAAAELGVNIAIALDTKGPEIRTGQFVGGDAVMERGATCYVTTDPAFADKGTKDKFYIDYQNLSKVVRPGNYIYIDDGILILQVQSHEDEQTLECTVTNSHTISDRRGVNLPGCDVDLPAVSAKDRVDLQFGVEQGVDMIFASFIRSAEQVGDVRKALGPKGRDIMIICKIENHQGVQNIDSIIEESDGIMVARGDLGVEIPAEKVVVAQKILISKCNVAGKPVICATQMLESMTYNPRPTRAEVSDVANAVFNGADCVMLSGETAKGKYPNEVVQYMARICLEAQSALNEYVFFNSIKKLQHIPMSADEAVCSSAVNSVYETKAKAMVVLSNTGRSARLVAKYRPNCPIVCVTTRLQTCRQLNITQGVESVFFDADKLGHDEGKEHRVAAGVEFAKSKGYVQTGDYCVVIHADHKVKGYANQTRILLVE
# Assay: qHTS Assay for Inhibitors of Leishmania Mexicana Pyruvate Kinase (LmPK)
# Settings: purified LmPK, Kinase-Glo ATP luminescence, 1 h; activity change, negative = inhibition: at 57.5 µM (top of the series) unless noted
# Summary of the method: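 In 50 mM imidazole pH 7.2 with 7 mM MgCl2, LmPK (0.1 nM) turned over PEP (0.5 mM) and ADP (0.1 mM) for 1 h at room temperature. Luciferase read-out of ATP.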
# On the % scale 0 is the no-effect control and ±100 the full control effect; potency means the concentration at half of the fitted maximal effect; tags describe the fitted curve by direction and shape.
Structure (SMILES),Potency,"activity change, negative = inhibition"
Cc1nc(-c2ccc(NC(=O)c3ccco3)cc2)cs1,"inconclusive: 22.4 µM [falling, partial curve]",
Fc1ccccc1Nc1nc2ccccc2o1,active: 15.8 µM,
CC1CC(C)CN(C(=O)c2ccc3c(c2NCCO)C(=O)c2ccccc2C3=O)C1 (stereo not given),"inconclusive: 31.6 µM [falling, single point]",
CNCCCC1Sc2ccccc2Oc2ccccc21 (stereo not given),,inactive: 0.223%
Cc1ccc(/C=C/C(=O)N2CCc3ccccc32)o1,"inconclusive: 15.8 µM [falling, partial curve]",
CCn1c(CSc2n[nH]c(N)n2)nc2cc(C(=O)O)ccc21,,inactive: -0.229%
O=C(NCc1ccco1)c1cc2ccc(O)cc2oc1=O,active: 14.1 µM,
O=[N+]([O-])c1ccccc1N/N=C\c1ccccc1Cl,"inconclusive: 15.8 µM [falling, partial curve]",
O=C(O)c1ccc2c3n(nc2c1)-c1ccc(Cl)cc1CO3,"inconclusive: 28.2 µM [falling, single point]",
Cc1cc2ncc(-c3ncc(C(F)(F)F)cc3Cl)cn2n1,"inconclusive: 35.5 µM [falling, single point]",
c1cnc2nc(-c3ccc4c(c3)OCO4)cn2c1,"inconclusive: 39.8 µM [falling, single point]",
COc1cc([N+](=O)[O-])ccc1N/C=C/C(=O)c1cccs1,"inconclusive: 15.8 µM [falling, partial curve]",
Cc1[nH]n(-c2ccccc2)c(=O)c1/C=N/NC(=O)c1cccc(F)c1,,inactive: 2.14%
O=C(Nc1ncccc1O)c1ccc(OCC2CCCO2)cc1 (stereo not given),"inconclusive: 10 µM [falling, partial curve]",
Cc1ccsc1/C=C/c1ccc2ccccc2n1,"inconclusive: 31.6 µM [falling, single point]",
S=c1nc(-c2ccccc2)[nH]n1-c1ccccc1,"inconclusive: 10 µM [falling, partial curve]",
Cc1cccc2nc(=S)n(C(=O)c3ccco3)n12,active: 12.6 µM,
CCC(=O)Nc1cccc(NC(=O)c2ccc3c(c2)OCCO3)c1,,inactive: -17%
CCC(=O)Nc1cccc(NC(=O)c2cc3ccccc3o2)c1,"inconclusive: 17.8 µM [falling, partial curve]",
CCN(CC)S(=O)(=O)c1cccc(-c2n[nH]c(=S)n2C(C)COC)c1 (stereo not given),"inconclusive: 39.8 µM [falling, single point]",

Structure (SMILES),Potency,"activity change, negative = inhibition"
Cc1cccc(NC(=O)c2ccoc2C)n1,"inconclusive: 22.4 µM [falling, partial curve]",
Cc1ccsc1/C=N/Nc1ncnc2nc[nH]c12,"inconclusive: 25.1 µM [falling, partial curve]",
O=C(/C=C/c1ccc2c(c1)OCCO2)c1ccc(O)cc1,"inconclusive: 25.1 µM [falling, partial curve]",
Nc1ncnc2c1ncn2[C@@H]1O[C@H](COP(=O)(O)O)[C@@H](O)[C@H]1O,active: 10 µM,
COc1ccc(Nc2nc(N)nc(CSc3nccn3C)n2)cc1,,inactive: -10.4%
CCc1nnc(NC(=O)C2Cc3ccccc3C(=O)O2)s1 (stereo not given),,inactive: 11.3%
Fc1ccccc1-c1nc(-c2ccncc2)no1,"inconclusive: 20 µM [falling, partial curve]",
COc1ccc2[nH]c(-c3cccc(F)c3)cc(=O)c2c1,,inactive: -0.984%
CCOC(=O)CC(=O)CSc1nc2ccc(C)cc2cc1C#N,active: 20 µM,
O=C(Nc1nc2ccccc2[nH]1)c1ccc(F)cc1,active: 12.6 µM,
Cc1ccccc1-c1nc(-c2ccccn2)no1,active: 2.51 µM,
COc1cc(-c2n[nH]c(=S)n2-c2ccc(Br)cc2)cc(OC)c1OC,"inconclusive: 25.1 µM [falling, single point]",
CS(=O)(=O)N1CCC(C(=O)Nc2ccc3c(c2)OCO3)CC1,,inactive: -2.42%
COc1ccccc1C(=O)Nc1ccc(N2CCCCC2)cc1,"inconclusive: 20 µM [falling, partial curve]",
COc1ccc(Cl)cc1-c1n[nH]c(=S)n1C1CCCCC1,active: 7.08 µM,
N#C/C(=C\c1cccs1)C(=O)Nc1ccccn1,"inconclusive: 12.6 µM [falling, partial curve]",
Cc1ccc(C)c2nc3sc(C(=O)O)cc3cc12,"inconclusive: 39.8 µM [falling, single point]",
Cc1cccc(-c2n[nH]c(=S)n2/N=C/c2cccs2)c1,"inconclusive: 22.4 µM [falling, single point]",
COC(=O)CNc1c(-c2ccccn2)nc2ccc(Br)cn12,active: 15.8 µM,
O=[N+]([O-])c1ccc(N=Nc2c(Cl)cc(O)cc2Cl)cc1,active: 22.4 µM,
